Source: the supplement of paper PMC8007513
Where a name gives a salt, the structure may show the parent alone. ± gives the standard error. Screen size: about 1,300 compounds; about 130 (10%) showed an effect of 50% or more. Only a part is listed here, and it is no random draw.

Test system: Trichoderma virens ATCC 9645
Assay: growth yield (OD600) with compound + IPBC relative to untreated control; higher = less growth inhibition
Conditions: compound concentration: 100 uM, IPBC concentration: 200 ng/ml
Procedure, shortened: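 Plates were read for OD600 at 40 h and 72 h after Trichoderma virens ATCC 9645 spores (15,000 spores ml^−1 in potato dextrose broth) were grown at 30 °C with library compounds at 100 μM final, with or without a biocide at 200 ng ml^−1. Growth is stated relative to the control with neither agent, as the mean of duplicate screens.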

SMILES | growth yield (40 h) | growth yield (72 h)
Cc1cnc(C(=O)NCCc2ccc(S(=O)(=O)NC(=O)NC3CCCCC3)cc2)cn1 [Glipizide] + CCCCNC(=O)OCC#CI [3-iodo-2-propynyl butylcarbamate (IPBC)] | 96.3 ± 5.1% | 98.06 ± 0.73%
O=C1[C@H](CC[C@H](O)c2ccc(F)cc2)[C@@H](c2ccc(O)cc2)N1c1ccc(F)cc1 [Ezetimibe] + CCCCNC(=O)OCC#CI [3-iodo-2-propynyl butylcarbamate (IPBC)] | 88.5 ± 5.9% | 93.2 ± 4.7%
CCC1NC(=O)c2cc(S(N)(=O)=O)c(Cl)cc2N1 (stereo not given) [Quinethazone] + CCCCNC(=O)OCC#CI [3-iodo-2-propynyl butylcarbamate (IPBC)] | 107 ± 6.7% | 102 ± 2.9%
CCN(CC)CCOc1ccc(C(=C(Cl)c2ccccc2)c2ccccc2)cc1 [Clomiphene citrate (Z,E)] + CCCCNC(=O)OCC#CI [3-iodo-2-propynyl butylcarbamate (IPBC)] | 3.02 ± 0.16% | 2.94%
CN(C)[C@@H]1C(O)=C(C(=O)NCNCCCC[C@H](N)C(=O)O)C(=O)[C@@]2(O)C(O)=C3C(=O)c4c(O)cccc4[C@@](C)(O)[C@H]3C[C@@H]12 [Lymecycline] + CCCCNC(=O)OCC#CI [3-iodo-2-propynyl butylcarbamate (IPBC)] | 107 ± 2.1% | 88.94 ± 0.63%
CN1CCOC(c2ccccc2)c2ccccc2C1 (stereo not given) [Nefopam hydrochloride] + CCCCNC(=O)OCC#CI [3-iodo-2-propynyl butylcarbamate (IPBC)] | 83.4 ± 1.1% | 93.1 ± 1.1%
CN1CCC(=C2c3ccccc3CCc3sccc32)CC1 [Pizotifen malate] + CCCCNC(=O)OCC#CI [3-iodo-2-propynyl butylcarbamate (IPBC)] | 82.28 ± 0.32% | 98.06 ± 0.52%
O=C(O)[C@H]1/C(=C/CO)O[C@@H]2CC(=O)N21 [Clavulanate potassium salt] + CCCCNC(=O)OCC#CI [3-iodo-2-propynyl butylcarbamate (IPBC)] | 80.2 ± 1.4% | 85.1 ± 2.4%
Cc1cnc(C(=O)O)c[n+]1[O-] [Acipimox] + CCCCNC(=O)OCC#CI [3-iodo-2-propynyl butylcarbamate (IPBC)] | 85.3 ± 0.48% | 90.72 ± 0.1%
COc1ccc(C(=O)c2ccccc2O)c(O)c1 [Dioxybenzone] + CCCCNC(=O)OCC#CI [3-iodo-2-propynyl butylcarbamate (IPBC)] | 23.67 ± 0.16% | 48.35 ± 0.1%
CN1CCC[C@@H]1CCO[C@](C)(c1ccccc1)c1ccc(Cl)cc1 [Clemastine fumarate] + CCCCNC(=O)OCC#CI [3-iodo-2-propynyl butylcarbamate (IPBC)] | 53.2 ± 1.8% | 92.4 ± 0.94%
CCOc1ccc(NC(C)=O)cc1 [Phenacetin] + CCCCNC(=O)OCC#CI [3-iodo-2-propynyl butylcarbamate (IPBC)] | 71.6 ± 4.9% | 89.4 ± 1.5%
COc1cc2ncnc(Nc3ccc(F)c(Cl)c3)c2cc1OCCCN1CCOCC1 [Gefitinib] + CCCCNC(=O)OCC#CI [3-iodo-2-propynyl butylcarbamate (IPBC)] | 16.4 ± 5.2% | 10.5 ± 0.63%
CCN1CCC[C@H]1CNC(=O)c1c(O)c(Cl)cc(Cl)c1OC [Raclopride] + CCCCNC(=O)OCC#CI [3-iodo-2-propynyl butylcarbamate (IPBC)] | 84.7 ± 1.4% | 95.96 ± 0.1%
CC[C@@H]([C@H](C)O)n1ncn(-c2ccc(N3CCN(c4ccc(OC[C@@H]5CO[C@@](Cn6cncn6)(c6ccc(F)cc6F)C5)cc4)CC3)cc2)c1=O [Posaconazole] + CCCCNC(=O)OCC#CI [3-iodo-2-propynyl butylcarbamate (IPBC)] | 3.97 ± 1.4% | 3.78 ± 1.7%
CNC(C)(C)Cc1ccccc1 [Mephentermine hemisulfate] + CCCCNC(=O)OCC#CI [3-iodo-2-propynyl butylcarbamate (IPBC)] | 117 ± 10% | 108 ± 4.2%
NCc1ccc(S(N)(=O)=O)cc1 [Mafenide hydrochloride] + CCCCNC(=O)OCC#CI [3-iodo-2-propynyl butylcarbamate (IPBC)] | 96.7 ± 2.7% | 110 ± 5.2%
CN[C@@H]1[C@H](O[C@H]2[C@H](O[C@H]3[C@H](O)[C@@H](O)[C@H](NC(=N)N)[C@@H](O)[C@@H]3NC(=N)N)O[C@@H](C)[C@]2(O)CO)O[C@@H](CO)[C@H](O)[C@H]1O [Dihydrostreptomycin sulfate] + CCCCNC(=O)OCC#CI [3-iodo-2-propynyl butylcarbamate (IPBC)] | 101 ± 9.1% | 101 ± 5.9%
CC/C(=C(\c1ccccc1)c1ccc(OCCN(C)C)cc1)c1ccccc1 [Tamoxifen citrate] + CCCCNC(=O)OCC#CI [3-iodo-2-propynyl butylcarbamate (IPBC)] | 3.34 ± 0.48% | 3.36 ± 0.63%
CCc1oc2ccccc2c1C(=O)c1cc(Br)c(O)c(Br)c1 [Benzbromarone] + CCCCNC(=O)OCC#CI [3-iodo-2-propynyl butylcarbamate (IPBC)] | 43.68 ± 0.16% | 99.3 ± 8.1%
C#C[C@]1(O)CC[C@H]2[C@@H]3CCC4=C(CCC(=O)C4)[C@H]3CC[C@@]21C [Norethynodrel] + CCCCNC(=O)OCC#CI [3-iodo-2-propynyl butylcarbamate (IPBC)] | 69.7 ± 1.8% | 83.1 ± 1.9%
NS(=O)(=O)c1cc2c(cc1Cl)NC(CC1CCCC1)NS2(=O)=O (stereo not given) [Cyclopenthiazide] + CCCCNC(=O)OCC#CI [3-iodo-2-propynyl butylcarbamate (IPBC)] | 88.8 ± 1.4% | 98.48 ± 0.32%
CC(C)(C)NCC(O)c1cc(O)cc(O)c1 (stereo not given) [Terbutaline hemisulfate] + CCCCNC(=O)OCC#CI [3-iodo-2-propynyl butylcarbamate (IPBC)] | 95.9 ± 14% | 97.2 ± 8.5%
CCOC(=O)[N-]c1c[n+](N2CCOCC2)no1 [Molsidomine] + CCCCNC(=O)OCC#CI [3-iodo-2-propynyl butylcarbamate (IPBC)] | 86.9 ± 5.6% | 91 ± 2.9%
CC[N+](CC)(CC)CCOc1cccc(OCC[N+](CC)(CC)CC)c1OCC[N+](CC)(CC)CC [Gallamine triethiodide] + CCCCNC(=O)OCC#CI [3-iodo-2-propynyl butylcarbamate (IPBC)] | 80.37 ± 0.64% | 92.5 ± 1.7%
